# Laboratory results published in the supplement of paper PMC8728848.
# This is one part of the list.
# Tests used:
# Experiment in all cases: glycan array binding signal (z-score within array); higher = stronger binding
# Details in all cases: glycan notation: IUPAC condensed, linker removed
# [1] = biological target: Fuc(a1-2)Gal
# In short: (§1)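 From the Consortium for Functional Glycomics database, 3228 arrays were curated, keeping only those whose protein sequence was available. Binding is given as a within-array Z-score averaged across arrays sharing a protein sequence and across linkers. Negative Z-scores can be read as non-binding.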
# [2] = biological target: Fuc(a1-2)Gal(b1-3)GalNAc
# In short: as §1
# [3] = biological target: Fuc(a1-2)Gal(b1-3)GalNAc(b1-3)Gal
# In short: as §1
# [4] = biological target: Fuc(a1-2)Gal(b1-3)GalNAc(b1-3)Gal(a1-4)Gal(b1-4)Glc
# In short: as §1
# [5] = biological target: Fuc(a1-2)Gal(b1-3)GalNAc(b1-3)Gal(b1-4)Glc
# In short: as §1
# [6] = biological target: Fuc(a1-2)Gal(b1-3)GalNAc(b1-4)[Neu5Ac(a2-3)]Gal(b1-4)Glc
# In short: as §1
# [7] = biological target: Fuc(a1-2)Gal(b1-3)[Fuc(a1-4)]GlcNAc
# In short: as §1
# [8] = biological target: Fuc(a1-2)Gal(b1-4)Glc
# In short: as §1
# [9] = biological target: Fuc(a1-2)Gal(b1-4)GlcNAc
# In short: as §1
# [10] = biological target: Fuc(a1-2)Gal(b1-4)GlcNAc(b1-3)Gal(b1-4)GlcNAc
# In short: as §1
# [11] = biological target: Fuc(a1-2)Gal(b1-4)GlcNAc(b1-3)Gal(b1-4)GlcNAc(b1-3)Gal(b1-4)GlcNAc
# In short: as §1
# [12] = biological target: Fuc(a1-2)Gal(b1-4)[Fuc(a1-3)]GalNAc(b1-3)Gal(b1-4)[Fuc(a1-3)]GlcNAc
# In short: as §1
# [13] = biological target: Fuc(a1-2)Gal(b1-4)[Fuc(a1-3)]GalNAc(b1-3)Gal(b1-4)[Fuc(a1-3)]GlcNAc(b1-3)Gal(b1-4)[Fuc(a1-3)]GalNAc
# In short: as §1
# [14] = biological target: Fuc(a1-2)Gal(b1-4)[Fuc(a1-3)]GlcNAc
# In short: as §1
# [15] = biological target: Fuc(a1-2)GlcNAc
# In short: as §1
# [16] = biological target: Fuc(a1-2)[Gal(a1-3)]Gal
# In short: as §1
# [17] = biological target: Fuc(a1-2)[Gal(a1-3)]Gal(b1-3)GlcNAc
# In short: as §1
# [18] = biological target: Fuc(a1-2)[Gal(a1-3)]Gal(b1-4)Glc
# In short: as §1
# [19] = biological target: Fuc(a1-2)[Gal(a1-3)]Gal(b1-4)GlcNAc
# In short: as §1
# [20] = biological target: Fuc(a1-2)[Gal(a1-3)]Gal(b1-4)[Fuc(a1-3)]GlcNAc
# In short: as §1
# [21] = biological target: Fuc(a1-2)[Gal(a1-4)]Gal(b1-4)GalNAc
# In short: as §1
# [22] = biological target: Fuc(a1-2)[GalNAc(a1-3)]Gal
# In short: as §1
# [23] = biological target: Fuc(a1-2)[GalNAc(a1-3)]Gal(b1-3)GlcNAc
# In short: as §1
# [24] = biological target: Fuc(a1-2)[GalNAc(a1-3)]Gal(b1-4)Glc
# In short: as §1
# [25] = biological target: Fuc(a1-2)[GalNAc(a1-3)]Gal(b1-4)GlcNAc
# In short: as §1
# [26] = biological target: Fuc(a1-2)[GalNAc(a1-3)]Gal(b1-4)[Fuc(a1-3)]GlcNAc
# In short: as §1
# [27] = biological target: Fuc(a1-2)[GalNAc(a1-4)]Gal(b1-4)GlcNAc
# In short: as §1
# [28] = biological target: Fuc(a1-3)GlcNAc
# In short: as §1
# [29] = biological target: Fuc(a1-3)[Gal(b1-4)]GlcNAc
# In short: as §1
# [30] = biological target: Fuc(a1-3)[Gal(b1-4)]GlcNAc(b1-4)Gal(b1-4)[Fuc(a1-3)]GlcNAc
# In short: as §1
# [31] = biological target: Fuc(a1-3)[Gal(b1-4)]GlcNAc(b1-4)Gal(b1-4)[Fuc(a1-3)]GlcNAc(b1-4)Gal(b1-4)[Fuc(a1-3)]GlcNAc
# In short: as §1
# [32] = biological target: Fuc(a1-3)[Gal3S(b1-4)]GlcNAc
# In short: as §1
# [33] = biological target: Fuc(a1-3)[GalNAc(b1-4)]Gal(b1-4)GlcNAc
# In short: as §1
# [34] = biological target: Fuc(a1-4)GlcNAc
# In short: as §1
# [35] = biological target: Fuc(b1-3)GlcNAc
# In short: as §1
# [36] = biological target: Gal(a1-2)Gal
# In short: as §1
# [37] = biological target: Gal(a1-3)Gal
# In short: as §1
# [38] = biological target: Gal(a1-3)Gal(b1-3)Glc
# In short: as §1
# [39] = biological target: Gal(a1-3)Gal(b1-3)GlcNAc
# In short: as §1
# [40] = biological target: Gal(a1-3)Gal(b1-4)GlcNAc
# In short: as §1
# [41] = biological target: Gal(a1-3)Gal(b1-4)[Fuc(a1-3)]GalNAc
# In short: as §1
# [42] = biological target: Gal(a1-3)GlcNAc
# In short: as §1
# [43] = biological target: Gal(a1-3)[Gal(a1-4)]Gal(b1-4)GlcNAc
# In short: as §1
# [44] = biological target: Gal(a1-4)Gal(b1-4)Gal
# In short: as §1
# [45] = biological target: Gal(a1-4)Gal(b1-4)GalNAc
# In short: as §1
# [46] = biological target: Gal(a1-4)GlcNAc
# In short: as §1
# [47] = biological target: Gal(a1-6)Glc
# In short: as §1
# [48] = biological target: Gal(b1-2)Gal
# In short: as §1
# [49] = biological target: Gal(b1-3)Gal
# In short: as §1
# [50] = biological target: Gal(b1-3)GalNAc
# In short: as §1
# [51] = biological target: Gal(b1-3)GalNAc(b1-3)Gal(a1-4)Gal(b1-4)Glc
# In short: as §1
# [52] = biological target: Gal(b1-3)GalNAc(b1-3)Gal(b1-4)Glc
# In short: as §1
# [53] = biological target: Gal(b1-3)GalNAc(b1-3)Gal(b1-4)GlcNAc
# In short: as §1
# [54] = biological target: Gal(b1-3)GalNAc(b1-4)Gal(b1-4)Glc
# In short: as §1
# [55] = biological target: Gal(b1-3)GalNAc(b1-4)[Neu5Ac(a2-3)]Gal(b1-4)Glc
# In short: as §1
# [56] = biological target: Gal(b1-3)[Fuc(a1-4)]GlcNAc
# In short: as §1
# [57] = biological target: Gal(b1-3)[Fuc(a1-4)]GlcNAc(b1-3)Gal(b1-4)GlcNAc
# In short: as §1
# [58] = biological target: Gal(b1-3)[Fuc(a1-4)]GlcNAc(b1-3)Gal(b1-4)[Fuc(a1-3)]GlcNAc
# In short: as §1
# [59] = biological target: Gal(b1-3)[GlcNAc(b1-6)]GalNAc
# In short: as §1
# [60] = biological target: Gal(b1-3)[GlcNAc(b1-6)]GlcNAc
# In short: as §1
binder,measurement,setting,value
"HMGB1 (Homo sapiens), P09429 (protein) MGKGDPKKPRGKMSSYAFFVQTCREEHKKKHPDASVNFSEFSKKCSERWKTMSAKEKGKFEDMAKADKARYEREMKTYIPPKGETKKKFKDPNAPKRPPSAFFLFCSEYRPKIKGEHPGLSIGDVAKKLGEMWNNTAADDKQPYEKKAAKLKEKYEKDIAAYRAKGKPDAAKKGVVKAEKSKKKKEEEEDEEDEEDEEEEEDEEDEDEEEDDDDE",glycan array binding signal (z-score),[1],0.016
same,glycan array binding signal (z-score),[2],-0.236
same,glycan array binding signal (z-score),[3],-0.303
same,glycan array binding signal (z-score),[4],-0.385
same,glycan array binding signal (z-score),[5],-0.292
same,glycan array binding signal (z-score),[6],-0.223
same,glycan array binding signal (z-score),[7],-0.04
same,glycan array binding signal (z-score),[8],-0.488
same,glycan array binding signal (z-score),[9],-0.496
same,glycan array binding signal (z-score),[10],-0.004
same,glycan array binding signal (z-score),[11],-0.311
same,glycan array binding signal (z-score),[12],-0.246
same,glycan array binding signal (z-score),[13],-0.206
same,glycan array binding signal (z-score),[14],-0.384
same,glycan array binding signal (z-score),[15],-0.464
same,glycan array binding signal (z-score),[16],-0.383
same,glycan array binding signal (z-score),[17],-0.211
same,glycan array binding signal (z-score),[18],-0.444
same,glycan array binding signal (z-score),[19],-0.3
same,glycan array binding signal (z-score),[20],-0.413
same,glycan array binding signal (z-score),[21],-0.472
same,glycan array binding signal (z-score),[22],-0.309
same,glycan array binding signal (z-score),[23],-0.442
same,glycan array binding signal (z-score),[24],-0.341
same,glycan array binding signal (z-score),[25],-0.269
same,glycan array binding signal (z-score),[26],-0.324
same,glycan array binding signal (z-score),[27],-0.433
same,glycan array binding signal (z-score),[28],2.9
same,glycan array binding signal (z-score),[29],-0.398
same,glycan array binding signal (z-score),[30],-0.39
same,glycan array binding signal (z-score),[31],-0.45
same,glycan array binding signal (z-score),[32],-0.376
same,glycan array binding signal (z-score),[33],-0.425
same,glycan array binding signal (z-score),[34],-0.341
same,glycan array binding signal (z-score),[35],-0.461
same,glycan array binding signal (z-score),[36],-0.439
same,glycan array binding signal (z-score),[37],-0.295
same,glycan array binding signal (z-score),[38],-0.425
same,glycan array binding signal (z-score),[39],-0.403
same,glycan array binding signal (z-score),[40],-0.418
same,glycan array binding signal (z-score),[41],-0.425
same,glycan array binding signal (z-score),[42],-0.477
same,glycan array binding signal (z-score),[43],-0.393
same,glycan array binding signal (z-score),[44],-0.086
same,glycan array binding signal (z-score),[45],-0.309
same,glycan array binding signal (z-score),[46],-0.407
same,glycan array binding signal (z-score),[47],-0.039
same,glycan array binding signal (z-score),[48],-0.365
same,glycan array binding signal (z-score),[49],-0.393
same,glycan array binding signal (z-score),[50],-0.422
same,glycan array binding signal (z-score),[51],-0.486
same,glycan array binding signal (z-score),[52],-0.445
same,glycan array binding signal (z-score),[53],-0.431
same,glycan array binding signal (z-score),[54],-0.405
same,glycan array binding signal (z-score),[55],-0.408
same,glycan array binding signal (z-score),[56],-0.382
same,glycan array binding signal (z-score),[57],-0.101
same,glycan array binding signal (z-score),[58],-0.352
same,glycan array binding signal (z-score),[59],-0.173
same,glycan array binding signal (z-score),[60],-0.485
